{"source": "PubChem BioAssay AID588795", "about": "(National Center for Advancing Translational Sciences (NCATS), 2011)", "note": "The whole screen tested about 390,000 compounds, of which about 1,400 (0.36%) were called active. This list was built around the results that the source calls inconclusive (neither active nor inactive); the mix of calls is not that of the screen. Calls follow the shape of the dose curve; as a rule, active = well fitted inhibition curve with a large enough effect; inconclusive = small, poorly fitted or top-dose-only effect; inactive = no such curve, though single readings can be large or run the other way. Potencies beside an inconclusive call are fits to weak or partial responses and may not hold up. % is scaled to controls: 0 for no effect and ±100 for the full control effect; potency is read from the fitted curve at half-maximal effect; tags tell the direction and shape of the fitted curve."}
{"target": "Flap endonuclease 1 (Homo sapiens) (UniProt P39748)", "sequence (P39748 whole entry, looked up)": "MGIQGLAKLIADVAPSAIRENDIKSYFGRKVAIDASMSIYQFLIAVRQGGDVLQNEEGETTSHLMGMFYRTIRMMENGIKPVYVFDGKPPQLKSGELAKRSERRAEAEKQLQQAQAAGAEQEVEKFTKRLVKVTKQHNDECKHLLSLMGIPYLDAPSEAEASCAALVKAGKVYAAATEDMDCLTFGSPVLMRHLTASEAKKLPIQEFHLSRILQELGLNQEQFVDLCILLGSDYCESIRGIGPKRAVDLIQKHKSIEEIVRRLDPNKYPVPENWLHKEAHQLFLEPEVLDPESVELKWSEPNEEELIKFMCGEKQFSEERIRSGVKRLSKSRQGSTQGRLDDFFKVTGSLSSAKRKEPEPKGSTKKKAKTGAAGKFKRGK", "assay": "qHTS Assay for the Inhibitors of Human Flap endonuclease 1 (FEN1); also: nearly all actives have a fitted effect of over 65% in size.", "conditions": "Recombinant FEN1 flap cleavage, fluorescence, 15 min; series mostly up to 114 µM; activity change, negative = inhibition: at the top concentration", "method_in_brief": "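Enzyme 10 nM, 15 min RT preincubation with compound; start with substrate 50 nM final; reads at 0 and 15 min; qHTS titration, four-parameter Hill fit.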"}
{"smiles": "Cn1c(=O)[nH]c(=O)c2c1[nH]c(=S)n2CCCc1ccccc1", "Potency": "inconclusive: 89.1 µM [inhibitor, single point]"}
{"smiles": "COc1ccc2c(c1)CC/C(=C\\c1ccc(OC)c(Cn3nc(C)cc3C)c1)C2=O", "Potency": "inconclusive: 39.8 µM [inhibitor, partial curve]"}
{"smiles": "CCCCc1oc2ccccc2c1C(=O)c1cc(I)c(OCCN(CC)CC)c(I)c1", "Potency": "inconclusive: 2.99 µM [inhibitor, partial curve, poor fit]"}
{"smiles": "CCOC(=O)C1CCN(c2c(-c3ccccc3)c3cc(Cl)ccc3[nH]c2=O)CC1", "Potency": "inconclusive: 100 µM [inhibitor, single point]"}
{"smiles": "CC(=O)N1CCOc2ccc(S(=O)(=O)Nc3ccc(Cl)cn3)cc21", "Potency": "inconclusive: 89.1 µM [inhibitor, single point]"}
{"smiles": "CCOC(=O)C[n+]1cccc(Br)c1", "Potency": "inconclusive: 89.1 µM [inhibitor, single point]"}
{"smiles": "Cc1nc(NCC(=O)c2c[nH]c3ccccc23)sc1C", "activity change, negative = inhibition": "inactive: -14.1%"}
{"smiles": "CCc1ccc(-n2c(CCC(=O)O)ccc2-c2ccc(F)cc2)cc1", "Potency": "inconclusive: 89.1 µM [inhibitor, single point]"}
{"smiles": "NC(=O)c1oc2ccccc2c1NC(=O)c1nc2ccccc2s1", "activity change, negative = inhibition": "inactive: 6.33%"}
{"smiles": "Cc1ccc(/C=C2/C(=O)c3ccc(C(=O)O)cc3C2=O)o1", "Potency": "active: 25.1 µM"}
{"smiles": "COc1ccc(-c2cc(-c3ccc(OC)cc3)[nH]n2)cc1", "Potency": "inconclusive: 79.4 µM [inhibitor, partial curve, poor fit]"}
{"smiles": "Oc1ccc(C=NN=C2c3ccccc3-c3ccccc32)c(O)c1", "Potency": "inconclusive: 44.7 µM [inhibitor, partial curve, poor fit]"}
{"smiles": "O=C1N=C(N2C=CC(=C3C=CNC=C3)C=C2)/C(=C/N=NC(=O)c2ccccc2O)S1", "Potency": "inconclusive: 89.1 µM [inhibitor, single point]"}
{"smiles": "N#C/C(=C\\c1c(Oc2ccc(Br)cc2)nc2ccccn2c1=O)c1nc2ccccc2s1", "Potency": "inconclusive: 20 µM [inhibitor, full curve]"}
{"smiles": "COc1cc(/C=C2\\SC(=S)N(Nc3ncc(C(F)(F)F)cc3Cl)C2=O)cc(OC)c1OC", "Potency": "inconclusive: 79.4 µM [inhibitor, partial curve, poor fit]"}
{"smiles": "C/C(=N\\NC(=O)Cc1cccn1C)c1ccc2ccccc2c1", "activity change, negative = inhibition": "inactive: -9.94%"}
{"smiles": "O=C(/C(=C/O)N=Nc1ccccc1)c1ccncc1", "Potency": "inconclusive: 89.1 µM [inhibitor, partial curve, poor fit]"}
{"smiles": "CCOc1cc(CNc2ccc(O)cc2)cc(Br)c1OCc1ccccc1F", "Potency": "inconclusive: 79.4 µM [inhibitor, partial curve, poor fit]"}
{"smiles": "CCCC(=O)OCCNc1cc(Sc2nc3ccccc3[nH]2)c2nonc2c1[N+](=O)[O-]", "Potency": "inconclusive: 39.8 µM [inhibitor, partial curve]"}
{"smiles": "O=C(O)/C=C/C(=O)Nc1ccc(S(=O)(=O)Nc2nccs2)cc1", "Potency": "inconclusive: 35.5 µM [inhibitor, partial curve, poor fit]"}
{"smiles": "CC(=O)Nc1ccc(S(=O)(=O)N2CCN(C(=O)C3COc4ccccc4O3)CC2)cc1", "note": "(stereo not given)", "activity change, negative = inhibition": "inactive: -2.04%"}
{"smiles": "Nc1nccnc1C(=O)OCC(=O)NCCc1ccc(S(N)(=O)=O)cc1", "activity change, negative = inhibition": "inactive: -2.81%"}
{"smiles": "CCc1ccccc1NC(=O)CSc1nc2c(oc3ccccc32)c(=O)n1-c1ccccc1F", "activity change, negative = inhibition": "inactive: -4.2%"}
{"smiles": "CC1CCN(S(=O)(=O)c2ccc3c(c2)N(CC(=O)O)C(=O)CO3)CC1", "activity change, negative = inhibition": "inactive: -1.11%"}
{"smiles": "CCCCCCCCCC(=O)N/N=C/c1ccc(C)s1", "Potency": "inconclusive: 89.1 µM [inhibitor, partial curve, poor fit]"}
{"smiles": "O=C(NNc1c2ccccc2nc2ccccc12)c1ccc(O)cc1", "Potency": "inconclusive: 44.7 µM [inhibitor, full curve, poor fit]"}
{"smiles": "CCOc1ccc(Nc2nc(C)c(NC(=O)c3cccc(OC)c3)c(Nc3ccc(OCC)cc3)n2)cc1", "Potency": "inconclusive: 100 µM [inhibitor, partial curve, poor fit]"}
{"smiles": "COCCC(=O)N1CCc2c([nH]c3ccccc23)C1C(C)(C)C", "note": "(stereo not given)", "activity change, negative = inhibition": "inactive: -2.92%"}
{"smiles": "COc1ccc(CN2CCSc3sccc3C2=O)cc1", "activity change, negative = inhibition": "inactive: 19%"}
{"smiles": "COc1ccc(NC(=O)c2nc[nH]c2C(=O)NCC(=O)OC(C)(C)C)cc1", "Potency": "inconclusive: 50.1 µM [inhibitor, partial curve, poor fit]"}
{"smiles": "Cc1ccc(-c2csc3n[nH]c(=S)n23)cc1", "Potency": "inconclusive: 89.1 µM [inhibitor, single point]"}
{"smiles": "c1cc(SSc2ccncc2)ccn1", "Potency": "inconclusive: 89.1 µM [inhibitor, single point]"}
{"smiles": "COc1cc(/C=N/NC(=O)c2ccc(Cl)c(S(N)(=O)=O)c2)ccc1OCC(N)=O", "Potency": "inconclusive: 89.1 µM [inhibitor, partial curve, poor fit]"}
{"smiles": "O=C(O)[C@@H]1[C@H]2C[C@H]3c4[nH]c5ccccc5c4CCN3C[C@@H]2CC[C@@H]1O", "Potency": "inconclusive: 44.7 µM [inhibitor, partial curve]"}
{"smiles": "COc1ccc(N2CCc3c(C)nc4c(OC)cc(OC)cc4c32)cc1", "Potency": "active: 39.8 µM"}
{"smiles": "O=C(/C=C/c1ccco1)N(c1ccccn1)c1ccccn1", "Potency": "inconclusive: 79.4 µM [inhibitor, single point]"}
{"smiles": "O=S(=O)(O)c1cc(O)c2cc(Nc3ccccc3)ccc2c1", "Potency": "active: 50.1 µM"}
{"smiles": "CCC(C)Cn1c(O)cc2nn(-c3nc4ccccc4s3)c(=O)c-2c1C", "note": "(stereo not given)", "Potency": "inconclusive: 79.4 µM [inhibitor, partial curve]"}
{"smiles": "O=C(CC1SC(=O)N(c2ccccc2)C1=O)Nc1cccc2ccccc12", "note": "(stereo not given)", "activity change, negative = inhibition": "inactive: -0.673%"}
{"smiles": "Cc1ccc(-c2cc3c(N4CCN(c5cc(C)ccc5C)CC4)nccn3n2)cc1", "activity change, negative = inhibition": "inactive: -12.5%"}
{"smiles": "Cn1c(=O)c2sccc2n2c(CCCC(=O)Nc3ccc(Oc4ccc(Cl)cc4)cc3)nnc12", "Potency": "inconclusive: 22.4 µM [inhibitor, full curve]"}
{"smiles": "CCOc1ccccc1CNC(=O)CCn1ccc2cc(S(=O)(=O)N3CCCCC3)ccc21", "Potency": "inconclusive: 79.4 µM [inhibitor, partial curve, poor fit]"}
{"smiles": "CNS(=O)(=O)c1cc(-c2nnc(Nc3cc(C)ccc3C)c3ccccc23)ccc1C", "activity change, negative = inhibition": "inactive: -3.06%"}
{"smiles": "O=C(O)c1ccc(COc2ccccc2/C=C2/NC(=O)N(c3cccc(Cl)c3)C2=O)cc1", "Potency": "active: 56.2 µM"}
{"smiles": "CN(Cc1ccsc1)C(=O)CCc1nnc(CCCc2ccccc2)o1", "activity change, negative = inhibition": "inactive: -7.21%"}
{"smiles": "O=C(COc1ccc([N+](=O)[O-])cc1)Nc1nnc(-c2cccnc2)s1", "Potency": "inconclusive: 89.1 µM [inhibitor, partial curve, poor fit]"}
{"smiles": "COc1cc(C2C(=O)c3ccccc3C2=O)ccc1O", "Potency": "inconclusive: 79.4 µM [inhibitor, single point]"}
{"smiles": "C#CCOCCOCCOCCNc1nc(N2CCN(C(=O)CCCCCCCCCCNC(=O)[C@H]([C@@H](C)CC)n3cc(CCCCCN)nn3)CC2)nc(N2CCN(C(=O)CCCCCCCCCCNC(=O)[C@H](CO)n3cc(CCCCCN)nn3)CC2)n1", "Potency": "inconclusive: 89.1 µM [inhibitor, single point]"}
{"smiles": "O=C(c1ccc(S(=O)(=O)N2CCOCC2)cc1)N1CCN(C2=NS(=O)(=O)c3ccccc32)CC1", "Potency": "inconclusive: 89.1 µM [inhibitor, partial curve, poor fit]"}
{"smiles": "CCOC(=O)c1ccc(N2CC(O)=C(c3nc4ccccc4c(=O)[nH]3)C2=N)cc1", "Potency": "inconclusive: 89.1 µM [inhibitor, partial curve, poor fit]"}
{"smiles": "CCc1cc(-c2[nH]ncc2-c2ccc3c(c2)OCO3)c(O)cc1O", "Potency": "inconclusive: 70.8 µM [inhibitor, partial curve, poor fit]"}
{"smiles": "O=C(NCc1ccccc1Cl)c1cc(C(=O)C2CC2)c[nH]1", "activity change, negative = inhibition": "inactive: -11.9%"}
{"smiles": "CO/N=C(\\C(=O)N[C@@H]1C(=O)N2C(C(=O)O)=C(COC(C)=O)CS[C@H]12)c1csc(N)n1", "Potency": "inconclusive: 4.23 µM [inhibitor, partial curve, poor fit]"}
{"smiles": "CCCCNC(=O)c1sc(=S)n2c1[nH]c(=O)c1ccccc12", "Potency": "inconclusive: 39.8 µM [inhibitor, partial curve, poor fit]"}
{"smiles": "COc1ccc2c(-c3ccccc3)cc(SCC(=O)NC3CCS(=O)(=O)C3)nc2c1", "note": "(stereo not given)", "Potency": "inconclusive: 79.4 µM [inhibitor, partial curve, poor fit]"}
{"smiles": "Cc1ccc(Sc2ncccc2COC(=O)Nc2ccccc2)cc1", "Potency": "inconclusive: 50.1 µM [inhibitor, partial curve, poor fit]"}
{"smiles": "O=C(C[n+]1cccc(Cl)c1)c1ccc(F)cc1", "activity change, negative = inhibition": "inactive: 0.508%"}
{"smiles": "CCCCCCCOc1ccc(CC(=O)NO)cc1", "activity change, negative = inhibition": "inactive: -0.501%"}
{"smiles": "CN1C(=O)S/C(=C/c2ccc(OCc3cccc(C(=O)O)c3)cc2)C1=O", "activity change, negative = inhibition": "inactive: 9.97%"}
{"smiles": "O=S(=O)(Nc1cccc(F)c1)c1ccc2[nH]c3c(c2c1)CCCCC3", "activity change, negative = inhibition": "inactive: -26.5%"}
{"smiles": "C/C(=N\\Nc1cccc2cccnc12)c1ccc(C)cc1", "Potency": "inconclusive: 35.5 µM [inhibitor, partial curve, poor fit]"}
{"smiles": "Cn1nnc(C(O)CNCc2cccs2)n1", "note": "(stereo not given)", "Potency": "inconclusive: 17.8 µM [inhibitor, single point]"}
{"smiles": "O=C(c1cc(-c2cccc(O)c2)on1)N1CCN(C(c2ccccc2)c2ccccc2)CC1", "Potency": "inconclusive: 12.6 µM [inhibitor, partial curve, poor fit]"}
{"smiles": "CCOC(=O)CC1=NN(c2ccccc2)C(=O)/C1=C\\c1ccc(OC)cc1OC", "Potency": "inconclusive: 79.4 µM [inhibitor, partial curve]"}
{"smiles": "Cc1nc(N)sc1-c1csc(Nc2cccc(C(=O)O)c2)n1", "Potency": "inconclusive: 50.1 µM [inhibitor, partial curve, poor fit]"}
